Source: paper PMC8224564
Results are given in words; binding and its absence hold for the method and conditions named. Binding seen in cells or lysates may run through a third protein. Some entries that bind do so weakly or less than the wild type. For some of these results: Where a sequence is shown, tags or fusion partners need not be part of it. Blank lines part the entries; values can stand above or below the molecule they belong to.

Sequences of proteins named here, by UniProt entry; tags and fusion partners are left off. A change or cut given only in a name is not applied to a line headed by its entry. Residues count along the entry.
UniProt Q8VIM0, residues 20-281: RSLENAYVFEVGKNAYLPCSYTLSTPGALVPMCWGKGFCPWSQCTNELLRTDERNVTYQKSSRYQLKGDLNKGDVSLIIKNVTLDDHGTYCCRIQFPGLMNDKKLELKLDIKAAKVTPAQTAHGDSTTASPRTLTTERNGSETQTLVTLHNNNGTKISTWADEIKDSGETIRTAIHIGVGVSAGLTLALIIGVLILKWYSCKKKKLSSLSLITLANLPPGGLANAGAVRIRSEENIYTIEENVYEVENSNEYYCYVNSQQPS
UniProt Q03145, residues 26-977: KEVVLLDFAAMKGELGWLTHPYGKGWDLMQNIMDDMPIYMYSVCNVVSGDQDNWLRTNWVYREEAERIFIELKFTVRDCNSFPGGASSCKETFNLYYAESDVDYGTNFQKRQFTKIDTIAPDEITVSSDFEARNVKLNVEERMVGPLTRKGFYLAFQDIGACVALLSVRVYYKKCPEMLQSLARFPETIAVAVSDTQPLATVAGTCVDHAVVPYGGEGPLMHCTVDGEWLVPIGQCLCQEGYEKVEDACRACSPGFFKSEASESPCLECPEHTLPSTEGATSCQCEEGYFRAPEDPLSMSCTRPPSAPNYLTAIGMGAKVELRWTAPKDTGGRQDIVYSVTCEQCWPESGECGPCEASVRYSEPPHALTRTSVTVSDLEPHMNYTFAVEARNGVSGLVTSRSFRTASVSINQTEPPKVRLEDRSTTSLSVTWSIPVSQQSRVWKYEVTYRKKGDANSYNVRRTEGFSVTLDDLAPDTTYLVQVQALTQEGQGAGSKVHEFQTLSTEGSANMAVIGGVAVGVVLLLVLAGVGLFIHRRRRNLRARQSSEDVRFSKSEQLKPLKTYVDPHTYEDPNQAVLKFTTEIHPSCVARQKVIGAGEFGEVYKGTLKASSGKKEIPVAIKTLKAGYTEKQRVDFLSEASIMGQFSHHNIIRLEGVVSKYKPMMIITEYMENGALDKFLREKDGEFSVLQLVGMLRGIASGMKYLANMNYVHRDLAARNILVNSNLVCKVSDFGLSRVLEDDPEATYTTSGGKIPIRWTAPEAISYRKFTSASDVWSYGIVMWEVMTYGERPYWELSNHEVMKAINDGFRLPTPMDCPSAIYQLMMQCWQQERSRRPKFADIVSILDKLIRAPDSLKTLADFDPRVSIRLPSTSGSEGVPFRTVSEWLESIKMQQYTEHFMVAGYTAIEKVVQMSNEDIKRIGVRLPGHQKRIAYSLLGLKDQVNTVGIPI
UniProt P29317: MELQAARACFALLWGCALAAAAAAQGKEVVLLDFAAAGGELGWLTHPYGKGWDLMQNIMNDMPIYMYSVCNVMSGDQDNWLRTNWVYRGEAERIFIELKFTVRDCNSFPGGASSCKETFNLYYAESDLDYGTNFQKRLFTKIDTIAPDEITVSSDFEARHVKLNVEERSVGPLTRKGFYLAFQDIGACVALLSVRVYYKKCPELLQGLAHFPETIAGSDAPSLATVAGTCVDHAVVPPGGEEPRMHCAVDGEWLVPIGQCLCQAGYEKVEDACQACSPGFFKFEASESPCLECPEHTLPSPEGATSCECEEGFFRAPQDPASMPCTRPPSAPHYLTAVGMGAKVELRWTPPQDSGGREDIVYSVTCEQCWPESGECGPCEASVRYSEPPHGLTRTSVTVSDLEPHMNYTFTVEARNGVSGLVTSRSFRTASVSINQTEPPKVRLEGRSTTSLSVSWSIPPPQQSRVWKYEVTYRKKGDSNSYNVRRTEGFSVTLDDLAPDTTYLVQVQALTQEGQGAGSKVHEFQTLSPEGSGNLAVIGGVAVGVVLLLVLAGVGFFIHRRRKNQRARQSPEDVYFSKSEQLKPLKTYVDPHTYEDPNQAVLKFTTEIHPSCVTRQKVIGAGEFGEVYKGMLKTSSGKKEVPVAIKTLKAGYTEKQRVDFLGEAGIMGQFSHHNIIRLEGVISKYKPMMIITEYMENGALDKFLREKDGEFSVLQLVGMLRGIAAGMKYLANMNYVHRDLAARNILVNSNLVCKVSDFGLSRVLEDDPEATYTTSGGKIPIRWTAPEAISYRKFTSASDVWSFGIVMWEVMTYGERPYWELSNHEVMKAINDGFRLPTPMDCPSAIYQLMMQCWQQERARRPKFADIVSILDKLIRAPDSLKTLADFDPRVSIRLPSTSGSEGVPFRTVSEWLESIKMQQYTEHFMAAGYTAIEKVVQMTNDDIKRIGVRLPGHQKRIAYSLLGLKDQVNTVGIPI
EphA2^ECR: residues 24-537 of P29317

Legend:
HA-tagged Tim-4 [1] = molecular target: T1, HA-tagged Tim-4 (UniProt Q6U7R4); assay: proximity ligation; LR73 cells transfected, fixed with 4% paraformaldehyde; Duolink PLA with anti-HA and anti-Myc (methods) or anti-EphA2 antibodies; confocal microscopy
T1 sequence: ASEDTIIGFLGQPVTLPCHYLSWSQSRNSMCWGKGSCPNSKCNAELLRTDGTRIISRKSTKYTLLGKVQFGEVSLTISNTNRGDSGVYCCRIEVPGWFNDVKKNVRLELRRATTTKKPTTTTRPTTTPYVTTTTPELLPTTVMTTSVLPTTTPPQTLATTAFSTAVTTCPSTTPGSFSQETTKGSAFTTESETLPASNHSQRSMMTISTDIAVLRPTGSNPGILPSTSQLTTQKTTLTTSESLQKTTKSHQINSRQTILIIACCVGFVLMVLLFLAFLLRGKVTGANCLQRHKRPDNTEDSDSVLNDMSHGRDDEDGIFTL

Tim-1 = molecular target: T2, Tim-1 (UniProt Q5QNS5); assay: co-IP; 293T cells co-transfected, lysates incubated with anti-HA antibody-conjugated agarose beads, 4 °C, 2 h; immunoblot
T2 sequence: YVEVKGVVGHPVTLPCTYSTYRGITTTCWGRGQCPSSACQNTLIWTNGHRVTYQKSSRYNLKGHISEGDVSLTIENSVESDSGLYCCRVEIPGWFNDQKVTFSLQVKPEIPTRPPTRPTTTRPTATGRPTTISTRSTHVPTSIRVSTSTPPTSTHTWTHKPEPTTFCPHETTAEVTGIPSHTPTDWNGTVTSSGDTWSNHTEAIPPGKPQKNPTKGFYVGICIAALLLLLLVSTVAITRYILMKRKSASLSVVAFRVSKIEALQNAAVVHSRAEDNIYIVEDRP

Tim-3 = Tim-3 (UniProt Q8VIM0); assay: as above
HA-tagged Tim-4 [2] = molecular target: T1, HA-tagged Tim-4; assay: as above
[3] = molecular target: EphA2 (endogenous, mouse lymph node) (mouse (endogenous in lymph nodes)) (UniProt Q03145); assay: co-IP; endogenous proteins; lysate of mouse lymph node cells, anti-EphA2 antibody and protein A/G agarose beads; immunoblot
EphA2^ECR = EphA2^ECR (UniProt P29317); assay: pull-down; 293T cells co-transfected, lysates incubated with glutathione agarose beads to precipitate the GST-tagged protein; immunoblot

- binding (HA-tagged Tim-4 [1]): binds
- binding (Tim-1): binds
- binding (Tim-3): no binding
- binding (HA-tagged Tim-4 [2]): binds
Molecule: EphA2 (from UniProt P29317 24-976) (receptor)

- binding [3]: binds
B1: Tim-4 (endogenous, mouse lymph node) (receptor, UniProt Q6U7R4 23-343)
chain: T1 sequence

- binding (EphA2^ECR): binds
B2: the extracellular region of Tim-4 (domain or fragment, UniProt Q6U7R4 23-279)
chain: ASEDTIIGFLGQPVTLPCHYLSWSQSRNSMCWGKGSCPNSKCNAELLRTDGTRIISRKSTKYTLLGKVQFGEVSLTISNTNRGDSGVYCCRIEVPGWFNDVKKNVRLELRRATTTKKPTTTTRPTTTPYVTTTTPELLPTTVMTTSVLPTTTPPQTLATTAFSTAVTTCPSTTPGSFSQETTKGSAFTTESETLPASNHSQRSMMTISTDIAVLRPTGSNPGILPSTSQLTTQKTTLTTSESLQKTTKSHQINSRQT

- binding (HA-tagged Tim-4 [2]): no binding
B3: Cdon (receptor, UniProt Q32MD9 25-1250)
chain: DLAPYFISEPLSAVQKLGRPVVLHCSAKPVTARISWLHNGKRLDRNTEQIKIHRGTLTILSLNPSLSGCYQCVANNSVGAVVSGPATVSAAALGDFDSSTMHVITAEEKNTGFIGCRVPESNPKAEVRYKIRGKWLKHSTGNYIILPSGNLQVLNVSSKDKGSYKCAAYNPVTSELKVEPTGRKLLVSRPSSNGFHILHPALSQALAVLPHSPVTLECVVSGVPASQVYWLKDGQDAVAGSNWRRLYSHLATASIDPADSGNYSCVVGNKSGDVKHVTYMVNVLEHASISKGLHDQKVSLGATVHFTCDVHGNPAPNRTWFHNAQPIHPSSRHLTEGNVLKITRVVMEDSGLYQCVADNGIGFMQSTGRLQIEQDSGWKPVIVTAPANIEVMDGDFVTLSCNATGVPVPVIHWYGRHGLITSHPSQVLRSKPRKSHLFRPGDLDLEPVYLIMSQAGSSSLSIQAVTLEHAGKYTCEATNKHGSTQSEAFLTVVPFETNTKAESVTPSEASQNDERDPQDGSESSLLNLFPVKVHPSGVELPAERNASVPDAPNILSPPQTHMPDTYNLVWRAGRDGGMPINAYFVKYRKLDDGSGAVGSWHTVRVPGSENELHLTELEPSSLYEVLMVARSAVGEGQPAMLTFRTSKEKMASSKNTQASFPPVGVPKRPVTAEASNSNFGVVLTDSSRHSGVPEAPDRPTISMASETSVYVTWIPRANGGSPITAFKVEYKRMRTSDWLVAAEDIPPSKLSVEVRSLEPGSIYKFRVIAINHYGESFRSSASRPYQVAGFPNRFSNRPITGPHIAYTEAVSDTQIMLKWTYVPSSNNNTPIQGFYIYYRPTDSDNDSDYKRDVVEGSKQWHTIGHLQPETSYDIKMQCFNEGGESEFSNVMICETKVKRVPGASDYPVKELSTPPSSSGNAGNVGPATSPARSSDMLYLIVGCVLGVMVLILMVFIALCLWKSRQQSTIQKYDPPGYLYQGSEINGQMVEYTTLSGAARINGSVHGGFLSNGCSHLHHKGPSGVNGTLSGNINGGLYSAHTNSLTRACVEFEHPHHLVNSGGVYTAVPQMDPLECINCRNCRNNNRCFTKTNSPLPVVPVVASYPQGGLEMKPLNAMKVPVCPASTVPDHGQLPDDCVKDSVAPIPTQHTCCQDNISDINSDSTEDTAEFSRGDSSGHSEAEDKVFSWNPLILSPVLEDCGEKTARSPPGPPLDGLSVVLQQAQET
